Out of some 3,200 compounds screened, about 110 (3.4%) showed an effect of 50% or more. This is one part of the list.
System: T1, V. cholerae SAD30
T1 construct: SAD30
Parameters: species or system S. aureus MSSA476 (TSB) or V. cholerae SAD30 (LB); 384-well bacterial growth screen at 25 uM, OD600 relative to DMSO control
Conditions: relative growth, OD600, LB; 25 µM; inhibitor

SMILES | % of control remaining
C=CC(=O)Nc1nc2cc(C(F)(F)F)ccc2n1Cc1ccco1 [1-G11, N-{1-[(furan-2-yl)methyl]-5-(trifluoromethyl)-1H-1,3-benzodiazol-2-yl}prop-2-enamide] | 79.8206%
C=CC(=O)NC(c1ccc(F)cc1)C1CC1 (stereo not shown) [3-H20, N-[cyclopropyl(4-fluorophenyl)methyl]prop-2-enamide] | 91.0311%
COc1ccc(-n2c(C)cc(C(=O)CCl)c2C)cc1 [10-I12, 2-chloro-1-[1-(4-methoxyphenyl)-2,5-dimethyl-1H-pyrrol-3-yl]ethan-1-one] | 93.9801%
Cn1cc(C=C(C#N)C(=O)NC2CCCC2)c(-c2ccncc2)n1 [9-L16, 2-cyano-N-cyclopentyl-3-[1-methyl-3-(pyridin-4-yl)-1H-pyrazol-4-yl]prop-2-enamide] | 87.6275%
C=CC(=O)N(Cc1ccc(-n2cncn2)cc1)C1CC1 [3-J11, N-cyclopropyl-N-{[4-(1H-1,2,4-triazol-1-yl)phenyl]methyl}prop-2-enamide] | 88.9138%
C=CC(=O)Nc1c(C)ccn2ncnc12 [2-M08, N-{7-methyl-[1,2,4]triazolo[1,5-a]pyridin-8-yl}prop-2-enamide] | 90.3503%
C=CC(=O)Nc1ccc(C(=O)N2CCCCC2c2n[nH]c(C)n2)cc1 (stereo not shown) [3-E13, N-{4-[2-(5-methyl-1H-1,2,4-triazol-3-yl)piperidine-1-carbonyl]phenyl}prop-2-enamide] | 93.6776%
C=CC(=O)N(Cc1cc(C)cc2c(C)c(C)[nH]c12)CC1(C)COC1 [2-E07, N-[(3-methyloxetan-3-yl)methyl]-N-[(2,3,5-trimethyl-1H-indol-7-yl)methyl]prop-2-enamide] | 79.5426%
C=CC(=O)N(Cc1cccs1)C1CCc2cnn(C(C)C)c2C1 (stereo not shown) [1-L15, N-[1-(propan-2-yl)-4,5,6,7-tetrahydro-1H-indazol-6-yl]-N-[(thiophen-2-yl)methyl]prop-2-enamide] | 81.1659%
CC(Cl)C(=O)NC1CCc2cnn(C(C)C)c2C1 (stereo not shown) [7-H05, 2-chloro-N-[1-(propan-2-yl)-4,5,6,7-tetrahydro-1H-indazol-6-yl]propanamide] | 87.4938%
O=C(CCl)Nc1cc(-c2ccccc2)nn1-c1ccccc1 [4-A20, 2-chloro-N-(1,3-diphenyl-1H-pyrazol-5-yl)acetamide] | 107.656%
CCOc1cc(C=C(C#N)C(=O)NC(C)C)cc(Cl)c1O [9-I13, 3-(3-chloro-5-ethoxy-4-hydroxyphenyl)-2-cyano-N-(propan-2-yl)prop-2-enamide] | 84.9082%
Cc1cccc(C)c1NC(=O)C(C#N)=Cc1c(C)n[nH]c1C [8-O20, 2-cyano-3-(3,5-dimethyl-1H-pyrazol-4-yl)-N-(2,6-dimethylphenyl)prop-2-enamide] | 75.3909%
N#CC(=Cc1cccc(Cl)c1Cl)C(=O)NCCc1ccccc1 [8-J06, 2-cyano-3-(2,3-dichlorophenyl)-N-(2-phenylethyl)prop-2-enamide] | 78.9259%
CC(Cl)C(=O)N1CCCCCC1 (stereo not shown) [5-F11, 1-(azepan-1-yl)-2-chloropropan-1-one] | 91.2893%
C=CC(=O)N(CC)CC(=O)Nc1ccc2c(c1)nc1n2CCCCC1 [3-M19, N-[({1,8-diazatricyclo[7.5.0.0,2,7]tetradeca-2,4,6,8-tetraen-5-yl}carbamoyl)methyl]-N-ethylprop-2-enamide] | 96.6771%
C=CC(=O)Nc1ccc2oc(CC(C)(C)C)nc2c1 [3-K18, N-[2-(2,2-dimethylpropyl)-1,3-benzoxazol-5-yl]prop-2-enamide] | 84.5028%
Cc1cc(CN(C(=O)CCl)c2csnc2C)cs1 [5-C12, 2-chloro-N-(3-methyl-1,2-thiazol-4-yl)-N-[(5-methylthiophen-3-yl)methyl]acetamide] | 101.376%
Cc1nn(C)c(N2CCCN(C)CC2)c1CNC(=O)C(C)Cl (stereo not shown) [6-N17, 2-chloro-N-{[1,3-dimethyl-5-(4-methyl-1,4-diazepan-1-yl)-1H-pyrazol-4-yl]methyl}propanamide] | 91.6106%
CC(Cl)C(=O)Nc1ccc(OC(F)F)c(Cl)c1 (stereo not shown) [4-F18, 2-chloro-N-[3-chloro-4-(difluoromethoxy)phenyl]propanamide] | 60.5564%
C=CC(=O)N1CCCC(c2nc(C)no2)C1 (stereo not shown) [2-K12, 1-[3-(3-methyl-1,2,4-oxadiazol-5-yl)piperidin-1-yl]prop-2-en-1-one] | 86.0272%
O=C(CCl)Nc1ccc(S(=O)(=O)C(F)F)cc1 [4-N16, 2-chloro-N-(4-difluoromethanesulfonylphenyl)acetamide] | 111.279%

SMILES | % of control remaining
CC(Cl)C(=O)NC(C)C(=O)N1CCc2ccccc21 (stereo not shown) [7-M21, 2-chloro-N-[1-(2,3-dihydro-1H-indol-1-yl)-1-oxopropan-2-yl]propanamide] | 81.9428%
C=CC(=O)N1CCCC(n2cc(C)cn2)C1 (stereo not shown) [3-M12, 1-[3-(4-methyl-1H-pyrazol-1-yl)piperidin-1-yl]prop-2-en-1-one] | 95.9713%
COc1ccc2ccccc2c1C=C(C#N)C(=O)NC1CCCCC1 [8-P18, 2-cyano-N-cyclohexyl-3-(2-methoxynaphthalen-1-yl)prop-2-enamide] | 68.8647%
C=CC(=O)NCc1cc(-c2ccco2)on1 [1-A21, N-{[5-(furan-2-yl)-1,2-oxazol-3-yl]methyl}prop-2-enamide] | 97.0105%
O=C(CCl)N1N=C(c2ccco2)CC1c1cccc(Cl)c1 (stereo not shown) [5-M17, 2-chloro-1-[5-(3-chlorophenyl)-3-(furan-2-yl)-4,5-dihydro-1H-pyrazol-1-yl]ethan-1-one] | 105.748%
O=C(CCl)NC(Cc1ccccc1)c1ccccc1F (stereo not shown) [7-N10, 2-chloro-N-[1-(2-fluorophenyl)-2-phenylethyl]acetamide] | 82.4715%
Cc1cccc(C)c1NC(=O)CCl [5-P20, 2-chloro-N-(2,6-dimethylphenyl)acetamide] | 104.235%
COc1ccccc1NC(=O)C(C#N)=Cc1ccc(F)cc1 [8-E18, 2-cyano-3-(4-fluorophenyl)-N-(2-methoxyphenyl)prop-2-enamide] | 70.6322%
C=CC(=O)N1CCC(C(=O)NCC(C)(C)C2(O)CCCC2)CC1 [2-D14, N-[2-(1-hydroxycyclopentyl)-2-methylpropyl]-1-(prop-2-enoyl)piperidine-4-carboxamide] | 88.4975%
N#CC(=Cc1ccco1)C(=O)NC1CCN(c2ccc(F)cc2F)C1 (stereo not shown) [9-L09, 2-cyano-N-[1-(2,4-difluorophenyl)pyrrolidin-3-yl]-3-(furan-2-yl)prop-2-enamide] | 69.1366%
C=CC(=O)NCC1CC(CC(=O)O)CO1 (stereo not shown) [2-E03, 2-{5-[(prop-2-enamido)methyl]oxolan-3-yl}acetic acid] | 113.51%
C=CC(=O)N1CCC(C(=O)Nc2cccc(NC(=O)C(C)C)c2)CC1 [3-F05, N-[3-(2-methylpropanamido)phenyl]-1-(prop-2-enoyl)piperidine-4-carboxamide] | 93.3248%
C=CC(=O)NC1CCN(c2nnnn2C)CC1 [3-G06, N-[1-(1-methyl-1H-1,2,3,4-tetrazol-5-yl)piperidin-4-yl]prop-2-enamide] | 94.9127%
COc1cc(C=C(C#N)C(=O)NCc2ccccc2)cc2c1OCCO2 [9-I10, N-benzyl-2-cyano-3-(8-methoxy-2,3-dihydro-1,4-benzodioxin-6-yl)prop-2-enamide] | 87.2196%
Cc1ccccc1C(NC(=O)CCl)c1ccccc1C [7-J04, N-[bis(2-methylphenyl)methyl]-2-chloroacetamide] | 93.5734%
C=CC(=O)N1CCC[C@H]1C(=O)Nc1cccc(C)n1 [1-B10, (2S)-N-(6-methylpyridin-2-yl)-1-(prop-2-enoyl)pyrrolidine-2-carboxamide] | 90.0393%
CC(Cl)C(=O)NCc1ccc(Cl)cc1 (stereo not shown) [6-I04, 2-chloro-N-[(4-chlorophenyl)methyl]propanamide] | 95.0991%
CC(Cl)C(=O)NC1CCc2ccccc2-n2ccnc21 (stereo not shown) [7-E06, 2-chloro-N-{2,5-diazatricyclo[8.4.0.0,2,6]tetradeca-1(14),3,5,10,12-pentaen-7-yl}propanamide] | 78.2422%
C=CC(=O)N1CCN(CC2CCOC2)CC1 (stereo not shown) [1-H18, 1-{4-[(oxolan-3-yl)methyl]piperazin-1-yl}prop-2-en-1-one] | 94.946%
CNc1ccc(C=C(C#N)C(=O)Nc2ccccc2F)cc1[N+](=O)[O-] [8-N09, 2-cyano-N-(2-fluorophenyl)-3-[4-(methylamino)-3-nitrophenyl]prop-2-enamide] | 72.8076%
CSc1ccc(C=C(C#N)C(=O)Nc2ccc(C(=O)O)cc2)cc1 [9-M08, 4-{2-cyano-3-[4-(methylsulfanyl)phenyl]prop-2-enamido}benzoic acid] | 88.3073%
